Laboratory results published in PubChem BioAssay AID2107 (National Center for Advancing Translational Sciences (NCATS), 2009).
Several values for one entry are separate records, joined by “and”; a condition that tells them apart may be missing. Equal values may be shown once. In all, about 240,000 compounds went through this assay and about 20 (0.008%) were called active. Inconclusive means that the source gave no clear call. Such entries were picked first, then a sample of the others. Calls come from the whole dose curve; as a rule, active = well fitted inhibition curve with a large enough effect; inconclusive = small, poorly fitted or top-dose-only effect, or effect the other way; inactive = flat fitted curve, though single readings scatter. A potency beside an inconclusive call is a rough fit, not a confirmed value.

biological target: Alpha-galactosidase A (Homo sapiens) (UniProt P06280); assay: qHTS Assay for Inhibitors and Activators of Human alpha-Galactosidase From Spleen Homogenate; conditions: 4MU-alpha-Gal fluorescence, 40 min; activity change, negative = inhibition: at 80 µM (top of the series);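 for activity change, negative = inhibition: 0% = enzyme with vehicle and -100% = no enzyme basal signal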
How it was run: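 Fluorogenic readout (Ex 365/Em 440 nm) of 4-methylumbelliferone released from 1 mM 4-MU-alpha-galactoside by spleen homogenate, 40 min at 37C, pH 5.0. Data normalized to no-enzyme and enzyme controls; Hill-equation AC50 from compound titrations.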
Potency is the fitted concentration of half-maximal effect; tags give direction and shape of the fitted curve.

Chain of UniProt P06280 (P06280 whole entry, looked up): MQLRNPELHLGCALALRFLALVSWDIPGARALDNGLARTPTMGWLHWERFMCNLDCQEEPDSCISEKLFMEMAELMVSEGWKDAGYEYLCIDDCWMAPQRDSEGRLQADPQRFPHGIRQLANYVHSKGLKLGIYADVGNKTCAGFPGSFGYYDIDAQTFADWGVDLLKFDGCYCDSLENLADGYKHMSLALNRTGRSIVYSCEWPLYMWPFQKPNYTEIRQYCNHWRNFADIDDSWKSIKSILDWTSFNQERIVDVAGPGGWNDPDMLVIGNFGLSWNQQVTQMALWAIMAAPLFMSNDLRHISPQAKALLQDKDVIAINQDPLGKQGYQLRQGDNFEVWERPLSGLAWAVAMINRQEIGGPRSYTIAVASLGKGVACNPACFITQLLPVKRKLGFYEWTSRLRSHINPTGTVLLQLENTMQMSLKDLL

Row | SMILES | activity change, negative = inhibition | Potency
1 | Cc1ccc(-c2csc(N3N=C(c4ccccc4)/C(=C\c4ccc(N(C)C)cc4)C3=O)n2)cc1 | inactive: 3.2% | 
2 | Cc1c2c(n3c(nc4ccccc43)c1C#N)N(CCN1CCOCC1)CC2 |  | inconclusive: 50.1 µM [activator, single point]
3 | Cc1nnc(SCC(=O)Nc2nc(-c3ccccc3)cs2)n1N |  | inconclusive: 31.6 µM [inhibitor, partial curve]
4 | COc1ccc(-c2nc3cnc(N4CCNCC4)nc3n(Cc3cccs3)c2=O)cc1 |  | inconclusive: 35.5 µM [activator, single point]
5 | CC1CCCCC1NS(=O)(=O)c1ccc(S(=O)(=O)NCc2ccncc2)cc1 (stereo not drawn) |  | inconclusive: 56.2 µM [inhibitor, single point]
6 | Cc1cc(N2CCOCC2)nc2ccc(NC(=O)CCC(=O)N3CCCC(C)C3)cc12 (stereo not drawn) |  | inconclusive: 5.62 µM [activator, full curve]
7 | Cc1cc(NCc2ccco2)n2c(nc3ccccc32)c1C#N |  | inconclusive: 12.6 µM [activator, partial curve]
8 | O=C(CSc1ccc(Cl)cc1)NCc1ccncc1 | inactive: -3.41% | 
9 | N#Cc1c(N)sc2c1CCN(CCc1ccccc1)C2 |  | inconclusive: 50.1 µM [activator, single point]
10 | COCc1cc(C)nc(SCC[N+](C)(C)CC(=O)c2ccc(Br)cc2)c1C#N |  | inconclusive: 44.7 µM [inhibitor, single point]
11 | CCc1cccc(NC(=O)CN(c2ccc(OC)cc2)S(=O)(=O)c2c(C)n[nH]c2C)c1 |  | inconclusive: 11.2 µM [activator, single point]
12 | NC(=O)c1cc2ccc(O)cc2oc1=Nc1ccccc1 |  | inconclusive: 35.5 µM [activator, partial curve]
13 | Cc1ccc(S(=O)(=O)NCCC(=O)Oc2ccc3ccc(=O)oc3c2)cc1 |  | inconclusive: 35.5 µM [activator, partial curve]
14 | Cc1cc(=O)oc2cc(OC(=O)c3cncc(Br)c3)ccc12 |  | inconclusive: 15.8 µM [activator, partial curve]
15 | CN(C)c1cc(NC(=O)CNC(C)(C)C)c2ccccc2n1 |  | inconclusive: 39.8 µM [activator, partial curve]
16 | O=C(c1cc2ccccc2oc1=O)N1CCSC1c1ccco1 (stereo not drawn) |  | inconclusive: 35.5 µM [inhibitor, single point]
17 | Cc1cccc(Oc2nc3ccccn3c(=O)c2/C=C(\C#N)C(=O)NC2CCS(=O)(=O)C2)c1 (stereo not drawn) |  | inconclusive: 7.08 µM [activator, full curve]
18 | CCCCn1c(N)c(N(CC)C(=O)c2ccc3c(c2)S(=O)(=O)c2ccccc2C3=O)c(=O)[nH]c1=O |  | inconclusive: 28.2 µM [inhibitor, single point]
19 | Fc1ccc(Nc2nc(-c3ccoc3)nc3ccccc23)cc1 | inactive: 4.14% | 
20 | O=C(COC(=O)CNC(=O)c1ccc(Cl)cc1)Nc1cccc(S(=O)(=O)N2CCCC2)c1 | inactive: 4.27% | 
21 | CCCCCCn1c(=O)c(Cc2ccccc2)c(O)c2ccccc21 | inactive: 1.34% | 
22 | Cc1ccc(CN2CCSc3ccc(C(=O)NCc4ccccn4)cc32)cc1 |  | inconclusive: 35.5 µM [activator, partial curve]

Row | SMILES | activity change, negative = inhibition | Potency
23 | COc1cc2ccccc2cc1C(=O)OCC(=O)N1CCOCC1 |  | inconclusive: 35.5 µM [activator, single point]
24 | Cc1c2c(n3c(nc4ccccc43)c1C#N)N(CCN(C)C)CC2 |  | inconclusive: 39.8 µM [activator, partial curve]
25 | COc1ccc(CN2C(=O)c3c(c(C)n(C)c3C)C2C(=O)NC2CCC(C)CC2)cc1 (stereo not drawn) | inactive: 0.278% | 
26 | O=C(O)c1ccccc1N/N=C\c1ccnc2ccccc12 | inactive: 11.6% | 
27 | CCN(c1cccc(C)c1)S(=O)(=O)c1cccc2nsnc12 |  | inconclusive: 0.501 µM [activator, full curve, poor fit]
28 | Cn1c(CSc2ccccc2)c(C#N)c2ccccc21 |  | inconclusive: 28.2 µM [inhibitor, single point]
29 | Cc1c(C#N)c(N)nc2c3c(sc12)NC(=O)CC3c1ccc(F)cc1 (stereo not drawn) |  | inconclusive: 50.1 µM [activator, single point]
30 | CN(C)c1ncc2nc(-c3cccc(C#N)c3)c(=O)n(C[C@H]3CCCO3)c2n1 |  | inconclusive: 50.1 µM [inhibitor, single point]
31 | C=CCn1c(N)c(C(=O)OC(C)CC)c2nc3ccccc3nc21 (stereo not drawn) |  | inconclusive: 35.5 µM [activator, partial curve]
32 | O=C(Nc1ccc(C(=O)N2CCOCC2)cc1)c1cccs1 | inactive: -29.3% | 
33 | Cc1c(-c2cccc(NC(=O)c3cccs3)c2)nc2ncccn12 |  | inconclusive: 14.1 µM [activator, partial curve]
34 | O=C1Nc2ccc(I)cc2/C1=C/c1cc(Br)c(O)c(Br)c1 |  | inactive
35 | CCOC(=O)CNc1ncc([N+](=O)[O-])cc1C#N |  | inconclusive: 31.6 µM [inhibitor, single point]
36 | CCc1cc2c(CN3CCN(C)CC3)cc(=O)oc2cc1O |  | inconclusive: 31.6 µM [activator, partial curve]
37 | Cc1nc2ccccc2c2oc(C(=O)NCC3COc4ccccc4O3)cc12 (stereo not drawn) | inactive: 3.08% | 
38 | COc1cc2ccc(=O)oc2cc1O |  | inconclusive: 3.98 µM [activator, full curve] and inconclusive: 35.5 µM [activator, partial curve] and inconclusive: 44.7 µM [activator, partial curve]
39 | Cc1cc(C)cc(C(=O)/C=C2\NC(=O)CS2)c1 |  | inconclusive: 35.5 µM [inhibitor, single point]
40 | COC(=O)Cc1cc(=O)oc2cc(O)ccc12 |  | inconclusive: 31.6 µM [activator, partial curve]
41 | CCOC(=O)c1cc2c(=O)n3ccccc3nc2n(CCCOC)c1=NC(=O)C(C)(C)C |  | inconclusive: 14.1 µM [activator, partial curve]
42 | Cc1cc(C)nc(SCC(=O)c2ccc([N+](=O)[O-])cc2)n1 | inactive: 3.84% | 
43 | CCn1c2ccccc2c2nc3cc(OC)c(OC)cc3nc21 |  | inconclusive: 35.5 µM [activator, single point]
